# Results reported in PubChem BioAssay (NCATS).
# The inconclusive results got no clear call from the source; some entries with a clear call stand among them for comparison. For some of these results: Potencies beside an inconclusive call are fits to weak or partial responses and may not hold up. Activity calls are given as the source filed them. Unless noted, calls come from the whole dose curve; as a rule, active = well fitted curve in the direction sought with a large enough effect; inconclusive = small, poorly fitted or top-dose-only effect, or another doubt; inactive = no such curve, though single readings can be large; an effect the other way counts as inactive or inconclusive.
# Legend:
# [1] = Cell Viability - LYMP2-021 (AID 974);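 note: compound exposure lasts 24 hours at 37 °C; % is set by controls: 0 for no effect and ±100 for the full control effect; nearly all actives have a fitted effect of over 55% in size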
# Summary of the method: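 Loss of cellular ATP, measured with a luciferase-based CellTiter-Glo readout, serves as the toxicity signal in human lymphoblastoid cells treated for 24 hours at 37 C. Potency is reported as AC50 from a standard Hill model.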
# [2] = Cell Viability - LYMP2-024 (AID 988);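 note: plate controls were DMSO only for no effect and 92 µM tetraoctylammonium bromide for full effect; nearly all actives have a fitted effect of over 60% in size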
# Summary of the method: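 qHTS cytotoxicity, human lymphoblastoid line, complete medium; 24 h cpd treatment, 37 C; CellTiter-Glo ATP luminescence readout; tetraoctylammonium bromide positive control; AC50 via Hill fit.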
# [3] = Confirmatory screen NINDS Rhodamine qHTS for Zika virus inhibitors (AID 1347161); note: potency is the fitted concentration of half-maximal effect; nearly all actives have a fitted effect of over 60% in size
# Summary of the method: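 Purified NS2B-NS3 protease with the NS2B hydrophilic domain joined by a flexible linker (25 nM) in 10 mM Tris-HCl pH 8.0, 0.01% Tween 20, preincubated 15 min at RT with compound; Rhodamine110 peptide substrate 1.5 µM; fluorescence change over 15 min; 4-parameter Hill fit.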
# [4] = Cellular Toxicity (caspase-3) Renal Proximal Tubule (AID 667); conditions: renal proximal tubule cells, primary cells freshly taken from rat, solvent-only wells 0%, staurosporine 100%; at 91.7 µM (top of the series);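 note: cells exposed to compound for 16 hours at 37 °C before detection; 0% = DMSO basal and 100% = 10 µM staurosporine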
# Summary of the method: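 Freshly isolated primary rat kidney proximal tubule cells, 1000/well, treated 16 hr at 37 °C, then Caspase-Glo 3/7 luminescence after 1 hr. Normalized to DMSO and 10 uM staurosporine; AC50 from Hill fit.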
# [5] = Cell Viability - LYMP2-007 (AID 979);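 note: cells exposed to compound for 24 h before reading; 0% = DMSO only and the negative end = 92 µM tetraoctylammonium bromide; nearly all actives have a fitted effect of over 60% in size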
# Summary of the method: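 Cells are seeded at 2500 per well and rested 5 hr. Compounds are then added over a concentration series for 24 hr at 37 C. CellTiter-Glo is added for 30 min at room temperature before luminescence reading.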
# [6] = Cell Viability - LYMP2-020 (AID 986);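 note: plate controls were DMSO only for no effect and tetraoctylammonium bromide at 92 µM for full effect; nearly all actives have a fitted effect of over 55% in size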
# Summary of the method: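 Seed 2500 cells per well and incubate 5 hr at 37 C. Add compounds at a concentration series and incubate 24 hr at 37 C. Add CellTiter-Glo, wait 30 min at RT, read luminescence, and fit a Hill curve for AC50.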
# [7] = qHTS assay for small molecule agonists of the antioxidant response element (ARE) signaling pathway measured by Nrf2-dependant transcriptional activity (AID 720636; active = well fitted curve in the direction sought with a large enough effect in the repeat runs; inconclusive = weak or mixed curves; inactive = no such curve, though single readings can be large; an effect the other way counts as inactive or inconclusive;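 note: HepG2 cells with an ARE-driven luciferase reporter; % of control where 0% means no effect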)
# Summary of the method: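 ONE-Glo luminescence, read 30 min after reagent addition at room temperature, reflected ARE reporter activity in HepG2 cells that had been incubated with compound for 16 hr at 37 C in 1% dialyzed FBS.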
# [8] = qHTS profiling for inhibitors of Plasmodium falciparum proliferation (AID 504749);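 note: 0% = DMSO vehicle and full inhibition = artemisinin control; nearly all actives have a fitted effect of over 60% in size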; conditions: P. falciparum in erythrocytes, SYBR Green DNA, 72 h; Potency: parasite line A unless noted; series mostly up to 28.7 µM
# Summary of the method: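 Quantitative HTS: compounds pinned into medium, infected erythrocytes added (0.3% parasitemia, 2.5% hematocrit), 72 h culture at 37 C under 5% CO2. Saponin/Triton lysis with SYBR Green I, overnight RT, then fluorescence read.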
# [9] = target: 3',5'-cyclic-AMP phosphodiesterase 4B (Homo sapiens) (UniProt Q07343); experiment: qHTS Assay for Inhibitors of PDE-IV (AID 607; active = well fitted activation curve with a large enough effect in the main read-out, with a control signal flat, not every such curve was filed as active; inconclusive = small, poorly fitted or top-dose-only effect, or effect the other way, or a change in a side signal; note: potency is the fitted concentration of half-maximal effect); conditions: HEK293 ACTOne CNG channel cells, membrane potential fluorescence; activation (PDE inhibition): at 22.9 µM (top of the series)
# Chain of UniProt Q07343 (Q07343 whole entry, looked up): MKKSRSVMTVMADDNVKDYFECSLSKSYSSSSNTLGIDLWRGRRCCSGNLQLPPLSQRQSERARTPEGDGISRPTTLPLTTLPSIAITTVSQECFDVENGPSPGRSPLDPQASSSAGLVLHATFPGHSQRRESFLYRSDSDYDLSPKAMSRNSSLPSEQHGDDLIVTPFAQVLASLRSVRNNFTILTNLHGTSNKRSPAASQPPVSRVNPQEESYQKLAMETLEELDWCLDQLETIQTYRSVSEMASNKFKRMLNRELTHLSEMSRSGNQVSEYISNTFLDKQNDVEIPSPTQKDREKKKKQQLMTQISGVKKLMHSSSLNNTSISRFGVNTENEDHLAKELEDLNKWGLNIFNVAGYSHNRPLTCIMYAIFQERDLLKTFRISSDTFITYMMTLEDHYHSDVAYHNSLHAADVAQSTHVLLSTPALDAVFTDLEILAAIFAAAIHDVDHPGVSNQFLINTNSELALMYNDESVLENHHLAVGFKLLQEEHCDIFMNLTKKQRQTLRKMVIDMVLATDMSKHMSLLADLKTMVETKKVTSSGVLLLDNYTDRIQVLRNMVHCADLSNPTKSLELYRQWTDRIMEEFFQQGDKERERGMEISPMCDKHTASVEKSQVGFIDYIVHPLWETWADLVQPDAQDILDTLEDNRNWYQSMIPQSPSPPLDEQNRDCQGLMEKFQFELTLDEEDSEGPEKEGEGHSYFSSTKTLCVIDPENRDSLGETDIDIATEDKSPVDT
# Summary of the method: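 The readout is membrane depolarisation from a cAMP-sensing CNG channel, detected with a potential dye at ex 535/em 590. Cells were HEK293-derived (endogenous PDE-IV) at 1000 cells/well, titrated up to 22.9 uM final.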
# [10] = qHTS Assay for Lipid Storage Modulators (AID 1519; calls by dose curve; note: % is set by controls: 0 for no effect and ±100 for the full control effect); conditions: Drosophila S3 cells, BODIPY lipid droplet/cell ratio, laser cytometry; at 57.5 µM (top of the series); cells loaded with oleic acid
# Summary of the method: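 Cells seeded at 5,000 per well were treated with compounds over a concentration series and loaded with oleic acid (400 uM, as added). Lipid droplet fluorescence (488 nm excitation, 500-530 nm channel) was read by laser-scanning cytometry and normalized to 20 uM Triacsin C.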
# [11] = system: Zika virus NS2B-NS3 protease (linked construct); experiment: Confirmatory screen NINDS AMC qHTS for Zika virus inhibitors (AID 1347152); note: potency is the fitted concentration of half-maximal effect; nearly all actives have a fitted effect of over 70% in size
# Summary of the method: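 Linked NS2B-NS3 protease, 1 nM, in 10 mM Tris-HCl pH 8.0, 0.01% Tween 20; compounds preincubated 15 min at room temperature. Nle-KRR-AMC 10 microM (Km 18.3 µM); 15-min fluorescence change (340/450 nm) fitted to 4-parameter Hill.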
# [12] = HepG2 viability counterscreen (readout 1: protease activity) against the NCATS DSHEA and TCM libraries (AID 1794841); conditions: qHTS concentration series; at 27.3 µM (top of the series);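 note: cells exposed to compounds for about 24 h before the protease read; 0% is about no effect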
# Summary of the method: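 HepG2 cells, 1,000/well, attached ~4 h, then exposed ~24 h at 37C to substances. Protease activity read by fluorescence of 25 uM GF-AFC (Ex/Em 380/510 nm) after 30 min; ATP then by CellTiter-Glo luminescence.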
# [13] = target: Cytochrome P450 1A2 (Homo sapiens) (UniProt P05177); experiment: qHTS for inhibitors of CYPIA2 against the NCATS DSHEA and TCM libraries (AID 1919976); note: potency is the fitted concentration of half-maximal effect
# Chain of UniProt P05177 (P05177 whole entry, looked up): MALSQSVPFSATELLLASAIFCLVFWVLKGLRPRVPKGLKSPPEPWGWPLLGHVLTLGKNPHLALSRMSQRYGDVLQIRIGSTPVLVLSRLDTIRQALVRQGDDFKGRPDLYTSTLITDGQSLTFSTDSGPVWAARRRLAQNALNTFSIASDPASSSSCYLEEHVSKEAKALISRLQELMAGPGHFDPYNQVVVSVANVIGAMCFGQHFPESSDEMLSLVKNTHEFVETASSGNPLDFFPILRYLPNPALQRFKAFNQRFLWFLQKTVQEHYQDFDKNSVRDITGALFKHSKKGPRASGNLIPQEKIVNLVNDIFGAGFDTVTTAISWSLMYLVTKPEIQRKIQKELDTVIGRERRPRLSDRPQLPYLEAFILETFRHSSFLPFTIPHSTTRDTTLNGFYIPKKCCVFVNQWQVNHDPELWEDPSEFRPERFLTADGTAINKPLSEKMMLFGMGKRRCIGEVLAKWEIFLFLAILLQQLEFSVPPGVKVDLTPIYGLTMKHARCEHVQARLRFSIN
# Summary of the method: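 Enzyme and pro-luciferin substrate, or substrate alone as no-enzyme background, are pre-incubated with test samples for 15 min at room temperature. NADPH regeneration system (1x final) initiates a 30-45 min dark reaction; luciferase detection reagent follows before luminescence reading.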
# Tags give direction and shape of the fitted curve.
smiles,measurement,setting,value
O=C(O)Cc1cccc2ccccc12,Potency,[1],inactive
same,Potency,[2],inactive
CC1=C(C(=O)OCc2ccccc2)C(c2ccc(-c3ccccc3)cc2)NC(=O)N1CCCCCC(=O)O (stereo not drawn),Potency,[3],active: 2.48 µM
O=C(Oc1ccccc1)c1ccccc1O,caspase-3 activation,[4],inconclusive: 51.6%
same,Potency,[5],inactive
same,Potency,[6],inactive
same,Potency,[7],inactive
Cc1cc(O)cc2c1O[C@](C)(CCC[C@H](C)CCC[C@H](C)CCCC(C)C)CC2,Potency,[8],inactive
O=C(O)CN1C(=O)c2cccc3cccc(c23)C1=O,Potency,[9],"inconclusive: 7.55 µM [rising, partial curve]"
same,"activity change, negative = inhibition",[10],inconclusive: 8.84%
CC1(C)CC2=C3C=CC4C5(C)CCC(O)C(C)(C)C5CCC4(C)C3(C)CCC2(C)C(O)C1 (stereo not drawn),Potency,[11],"inconclusive: 24.2 µM [inhibitor, partial curve]"
O=C(O)CCCC[C@@H]1SC[C@@H]2NC(=O)N[C@@H]21,"activity change, negative = inhibition",[12],inactive: -9.08%
same,Potency,[13],active: 3.98 µM
